This is one part of the list. These are noisy estimates, calculated here from bound and input reads.
Target: T1, Pho4 (S. cerevisiae) (UniProt P07270)
T1 sequence: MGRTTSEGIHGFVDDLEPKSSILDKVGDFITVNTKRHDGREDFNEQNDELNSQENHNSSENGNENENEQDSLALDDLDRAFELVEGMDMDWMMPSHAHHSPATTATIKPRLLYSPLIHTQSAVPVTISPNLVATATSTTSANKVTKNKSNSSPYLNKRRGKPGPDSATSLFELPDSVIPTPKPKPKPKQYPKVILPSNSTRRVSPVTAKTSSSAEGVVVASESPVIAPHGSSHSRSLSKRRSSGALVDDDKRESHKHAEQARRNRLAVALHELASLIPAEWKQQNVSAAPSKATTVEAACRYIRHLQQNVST
Assay: relative binding free energy (BET-seq); higher = weaker binding
Details: reference: library average

Sequence	relative binding free energy [kcal/mol]
TGGGTCACGTGAGCTA	0.28
AAGGTCACGTGGGAGT	-0.04
TCGGGCACGTGTGGCA	-0.05
TTATGCACGTGAGAAG	0.15
ATTATCACGTGGAAAG	0.15
ATTGGCACGTGGATGA	-0.03
GTCGACACGTGGTAGT	0.17
AGTTGCACGTGTAGCT	-0.09
CGGGTCACGTGAGTCG	0.29
AGGGGCACGTGCGGGT	-0.18
TGGTCCACGTGTGGCA	0.16
GGCGTCACGTGGAAGT	0.26
GGATACACGTGTTGGC	0.16
TGTGTCACGTGTAATT	0.28
TTCAGCACGTGGAAGT	-0.01
TATGACACGTGGGAGT	-0.05
GTAATCACGTGAGTAT	0.37
TGGTTCACGTGTTAGC	0.35
GAATTCACGTGATATG	0.29
GTTGCCACGTGAGTGC	0.19
TTTTCCACGTGACGGT	0.21
AGGGACACGTGTTTGG	0.01
GGGTCCACGTGTTCAT	0.28
CAAGGCACGTGGTTAG	-0.24
AGTGTCACGTGTGCTT	0.06

Sequence	relative binding free energy [kcal/mol]
GTTTTCACGTGATTGA	0.49
GAGTACACGTGGCCGG	0.21
CGTTGCACGTGGAAAG	0.09
TGGGCCACGTGCGTTG	-0.17
GTCTCCACGTGGGGGT	-0.14
GCGTTCACGTGGGTCT	0.2
GGCGGCACGTGGGAAT	-0.03
GCGTTCACGTGGTATT	0.36
GGATTCACGTGACGGT	0.44
TTCGGCACGTGGTGCG	-0.31
TTTATCACGTGTAAAA	0.28
TAGTGCACGTGATGTG	0.1
GAACGCACGTGCGGGT	-0.05
GAGTGCACGTGGTGCG	-0.08
AGGAACACGTGCAGGG	-0.03
CGGGGCACGTGTAGAA	0.15
GGTTGCACGTGTTCGG	-0.05
TGGTTCACGTGATATG	0.36
AGTATCACGTGGTGTC	-0.1
GTGTTCACGTGTCTGG	0.33
AGGTACACGTGGGTAG	0.03
TTGGCCACGTGTTTGA	0.11
CGGTACACGTGAGTGG	0.3
TGGCGCACGTGTTAAG	0.02
GGATGCACGTGGTCTT	0.05

Sequence	relative binding free energy [kcal/mol]
AATTTCACGTGTTTGA	0.15
ATACACACGTGTGTGG	0.14
TTTCTCACGTGGCGGG	0.11
TCAGTCACGTGATATG	0.21
AGGATCACGTGGGGTC	-0.02
TTTTTCACGTGACCGT	0.25
CTGGGCACGTGTGGTA	-0.08
TGCAGCACGTGTGGCG	-0.01
TTTGGCACGTGATCTA	-0.04
ATGCACACGTGGGGTG	-0.22
ATCGTCACGTGAGGGA	0.19
TGCTGCACGTGGGTAG	-0.09
TTAGACACGTGTTGAT	-0.06
GATATCACGTGTGTAT	0.11
TATGGCACGTGCTTTA	-0.19
TATCACACGTGAGGTT	0.38
GTTGCCACGTGTGTTT	0.14
GTGTTCACGTGTGGAT	0.36
TCTTACACGTGGTTAG	-0.02
TATATCACGTGCGTTA	0.05
AAGTTCACGTGATGGG	0.38
GTGGGCACGTGCAGTC	0
TCGCTCACGTGGTGTT	0.06
GTATGCACGTGGAGAA	0.01
GGGAACACGTGGTGGG	0.08

Sequence	relative binding free energy [kcal/mol]
AATATCACGTGTTCTA	0.16
GTGTTCACGTGGGGCT	0.17
GCGGTCACGTGTATTG	0.28
TTGTGCACGTGTAAAC	0.11
GACTGCACGTGGAGTT	0.16
GTAGGCACGTGGCTGA	-0.16
GAACTCACGTGTAGGT	0.22
ATAGACACGTGTCGTG	0
ATTTTCACGTGGGCAG	0.18
ATATTCACGTGGCTTG	0.11
CTATGCACGTGGATTG	-0.11
GTGGGCACGTGTAGTA	0.02
GATGTCACGTGGAGGC	0.12
GGATTCACGTGAAATT	0.42
TAAGGCACGTGTCGGG	0.07
TTGTTCACGTGCAGTA	0.49
GCTTTCACGTGTAGGT	0.28
GAAGTCACGTGTGCTG	0.13
AAAATCACGTGGGAGG	0.17
TGGTCCACGTGATGTA	0.12
GTGAGCACGTGGTAGC	-0.23
GTGTGCACGTGGCATA	-0.02
ATTTTCACGTGATTTG	0.36
TAGGTCACGTGCGCGG	-0.06
AAAAGCACGTGGGCTG	-0.19

Sequence	relative binding free energy [kcal/mol]
TTTTGCACGTGGCGTT	-0.07
GGATCCACGTGGGAGG	0
AGGGGCACGTGGGATC	-0.17
TGTGACACGTGTAATA	0.13
CTGTCCACGTGGAGGG	-0.14
ATCTTCACGTGTTGGG	0.26
TATATCACGTGGTGTC	-0.05
ATTGGCACGTGGGCAA	-0.26
TAGGTCACGTGATAAT	0.13
TGCGACACGTGATGTG	0.06
TCGTACACGTGAGTGT	0.19
AATTTCACGTGTGTCA	0.26
TTGTGCACGTGTCAGG	0.06
GGTATCACGTGGTGGG	0.16
ACGGACACGTGTGGGC	0.05
GGGACCACGTGTAGGT	-0.01
TTGAGCACGTGTTGGC	-0.1
TCCTTCACGTGTAGGT	0.28
GTTTTCACGTGACGGT	0.4
AGTGGCACGTGTCCTG	-0.12
CTGATCACGTGTTGGA	0.11
CTGCGCACGTGCGGTT	-0.04
TTATACACGTGTGATT	0.2
CGCGTCACGTGTGGTA	0.04
GGACGCACGTGTGTTA	-0.04

Sequence	relative binding free energy [kcal/mol]
ATTGTCACGTGTTGCC	0.08
CGTTGCACGTGTGGAT	0.05
AGTGGCACGTGACTAG	0
TGCTGCACGTGAGAGG	0.07
AGTGCCACGTGTGTGC	-0.02
AGTAGCACGTGTAATG	-0.11
AAATTCACGTGGGTAG	0.17
GTGAGCACGTGTTATG	-0.05
GTGACCACGTGGCGGG	-0.12
CTTTACACGTGGGATA	0.06
AAGATCACGTGTGGAA	0.27
ATCCGCACGTGGTGGT	-0.2
TTTGGCACGTGGAAGG	-0.06
CCTGTCACGTGGTAGG	-0.03
AGACTCACGTGGTTGG	0.12
TGCGACACGTGTTAGT	0.06
TTTCACACGTGTGGCT	0.17
AAGTCCACGTGTGGTG	-0.14
AGCGGCACGTGAGGTG	0.15
TGTATCACGTGTGAAC	0.27
ATACACACGTGGGGGT	-0.13

Source: the BET-seq Pho4 binding data (Le et al. 2018)
